According to the RNAGym collection of RNA variant scans (doi:10.1093/nar/gkz1192):
Read counts are not given, so values of variants with three or more changes are uncertain.

B1: CPEB3 Ribozyme (parent)
chain: UAACAGGGGGCCACAGCAGAAGCGUUCACGUCGCAGCCCCUGUCAGAUUCUGGUGAAUCUGCGAAUUCUGCUGUAUAUCUC

Variants of: B1
Experiment: self-cleavage, relative activity (ratio to wild type); higher = more cleavage; in vitro, sequencing
Summary of the method: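 After error-prone PCR and barcoding, CPEB3 ribozyme mutant libraries were transcribed with T7 RNA polymerase at 37°C for 5 hours, then given 15 min with DNase I before an EDTA stop, and they cleaved during both steps. Reverse transcription with template switching preceded Illumina sequencing. Relative activity divides a variant's cleaved/total read fraction by the unmutated ribozyme's. At least 5 reads were required per variant, and three batches were averaged.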

Variant	self-cleavage
A13G U25C A45G A56G U80A	0.17
A13G G24A U60C U69A	0.08
A13G U69C A75G	0.14
A13G U41C U60C U74C U78C	0.17
A13G U25A A45U A77G	0.13
A13G U48C A57G	1.12
A13G G24A U25C C37U U60C	0.12
A13G U43C U54A	0.66
A13U A15G A28G A56U U60A C68G	0.15
A13G U25C C29A A56U C68A U80C	0.16
A13G U31A U58C U60C U80G	0.08
A13U A15G C34U A45G A56G U74C	0.27
A13G U26A A35G U43A A56U U72C	0.06
A13U A18G U25C U26A U41C U60C	0.04
A13U A18U A45U A56G A77G	0.04
A13G U25C A65G	0.2
A13G G24C U72C	0.29
A13U A20G A21G U26C	0.06
A13G U41G U49C A65G	0.15
A13G G30A U31A A47U U60C A65G	0.08
A13G C37A U49A A57G U58C	0.1
A13U A15G G30A G46U A56U U58C A64G	0.1
A13U A15G U25A C27U	0.05
A13U A15G A18G A47G A57G U76C	0.06

Variant	self-cleavage
A13G C40A U51G	0.21
A13G U41C U76C	0.91
A13G U26G A28C U48C	0.12
A13U A20G C40U	1.05
A13G G24A U41C	0.07
A13G C40U U58A U69C	0.02
A13G U41G U43C G70U U72A U80C	0.47
A13G U48C A56G A64G U72C	0.17
A13G U26A A35G G42A U48C	0.21
A13U A15G C37A C39A U60C U69G	0.13
A13G U43C A45U G63A A64G	0.22
A13G C38A A56G A57G U80C	0.18
A13G C59G A77G	0.26
A13U A20G C44U U60C	0.09
A13G U41C U58G	0.14
A13G U54C A77U	1.14
A13G U48C A57G U72G A77U	0.82
A13U A18G U26C	0.15
A13G C40A U41A U54C U60A U66C U74C	0.13
A13G U31A A45U U54C U78A	0.12
A13G U31A A35G	0.95
A13G U66G U67C	0.65
A13G U43C U54C A65G	0.24
A13U A18U A35G A47U U48C	0.12

Variant	self-cleavage
A13G G33A U80C	0.3
A13G U26A U67C	0.37
A13U A18G G19A A20U G30U G33A U58C	0.19
A13G G30A G46U	0.17
A13G U25C U41A U51A C71U U80A	0.04
A13U A15C U54A	0.98
A13G U25C U54A U80C	0.34
A13U A15U A18G A21G U60C U72C	0.23
A13G U41A C50A A56G	0.34
A13G U26G U78C	0.18
A13G C39G U49C U54C U74A U80A	0.06
A13G U41C U74C A75U	0.93
A13G U31A C39U U51A U54G U67C	0.07
A13G C40A U58C U67C G73A U74A U80C	0.06
A13G U26C U48C	0.24
A13G C38U U69A U72C	0.14
A13G U25C U49A A56G	0.23
A13U A20G G30A U31G A57U	0.07
A13G U31G C50A A57G	0.12
A13G U51A U80C	0.96
A13U A20C U54C A56U A64G U72C A75G	0.15
A13G U51C A64G U72A	0.15
A13G U43C C59A U60A A75U U80C	0.32
A13U A18G C68U	0.47

Variant	self-cleavage
A13G U26A A35U	0.24
A13G U26C U43G U49C U60C	0.35
A13G U48C U54A A56U A65G	0.13
A13U A15G U43A U66C	0.36
A13U A15U U80A	1
A13G C38A A64G U78C	0.14
A13G U26C C32U A35G G55A A56G A64G	0.04
A13G C40A C50A	0.19
A13U A18U G33C A35G	0.14
A13G U31C C34U U43A	0.61
A13U A15G G24A U25A U41C	0.38
A13G U31C A47U G55U U80C	0.31
A13U A18C C34A	0.38
A13U A18G U26C U51C	0.56
A13G G33A A57G G73A	0.31
A13G U43C U51A	0.79
A13G G19U A21G U26C C62U	0.17
A13G G16C C17U U72G A77C	0.18
A13U A18G U54C A64G	0.14
A13G U25A U51A A56G U58A U66C	0.1
A13U A15G A18U U25C U67C A77G	0.05
A13G U26C U43G U78C	0.84
A13G C32U C40G U80C	0.06
A13G U31G G55C	0.41

Variant	self-cleavage
A13G U41A U43A	0.26
A13G U49C U76A	0.22
A13G C39G A45U A56U U66A U80A	0.05
A13U A20G A21G U43C A47G	0.33
A13G U54G A64G U67A U72C U74C	0.12
A13G C59G U69C A77G	0.16
A13U A15U U31A G73A	0.92
A13G G22A C44A	0.18
A13G U54A U74A	1.11
A13G U31C U67C	0.11
A13G U54C U69C U74A U80A	0.54
A13U A15U A20C A45G A57G A65G C68U	0
A13U A18U U41C U51C U60A	0.35
A13U A15G U74C	1.12
A13U A15G U74A	1.18
A13U A18U A21G C44A	0.28
A13U A18U U54A U72C	0.52
A13G U51G U54C U80C	1.09
A13U A18U A35G A56G	0.59
A13G U51C U72C U78C U80C	0.51
A13G U25G U58C	0.26
A13G G30C A56G A64U	0.57
A13G U43C U54C C71G U74G	0.08
A13G U43C U67A	0.09

Variant	self-cleavage
A13G U25C U41A U67C	0.39
A13G U48A U78C U80G	0.47
A13G U25C U58A	0.16
A13U A18U A47G A65G	0.16
A13G U26A U60G G63A U69C	0.17
A13G U26A C37G U67C	0.38
A13G G53A A65U U72G A77G	0.16
A13U A15G U51A	1.09
A13G G46C U48C A56U	0.07
A13G U41C U80C	0.93
A13U A15G A21G U25C U41C U69C	0.08
A13G G16A C39A A65C	0.07
A13G U31C C39U U69C	0.5
A13G U49C A64G A65G	0.08
A13G U25G U43C A56G U66C	0.35
A13G U25A U48C A75U	0.12
A13G C40A U66C U67A G70U	0.21
A13G U26C G36A U43C A65G C71U	0.1
A13U A18G A45U U80G	0.37
A13G U26C A64G U72C	0.04
A13U A15G A18U C39G U43C A56G	0.05
A13U A18G U31A A45G C62A U80C	0.16
A13G U72A A75G U78C	1.25
A13G U66C U72C	0.36

Variant	self-cleavage
A13G U25C U54C	0.31
A13G G36U A77U	0.06
A13U A18G U25G U49C U67A	0.08
A13G U31C U41C	0.44
A13U A18U A45G	0.24
A13G U43C A64G A77G	0.26
A13G U43A U49C U72C	0.24
A13U A15U U31A U54A G61A	0.04
A13G U41A U58C A64G	0.06
A13G U48C U58C U80C	0
A13G G22A U26C U51A U67C	0.06
A13G U25C U72C	0.31
A13G U31C C79G	0.88
A13G U26A U43C U49C A75U	0.08
A13G U41A U51C U78C	0.13
A13G U26A A56U G61A U74G	0.09
A13U A18G A35U U49A A57U A75G A77G	0.06
A13G U51C U54A	0.92
A13G U25C U49A U51C C68U	0.09
A13G U25C C40U A57G	0.17
A13G U26G U72G	0.2
A13G G61A U69C U74A	0.14
A13G U41C U48C U60G	0.13
